This list was built around the results that the source calls inconclusive (neither active nor inactive); the mix of calls is not that of the screen. No potency is given beside an inconclusive call; the fits are too rough. Calls of active or inactive are those of the source. Calls follow the shape of the dose curve; as a rule, active = well fitted inhibition curve with a large enough effect; inconclusive = small, poorly fitted or top-dose-only effect; inactive = flat fitted curve, though single readings scatter.
Each molecule was assayed against Phospholipid hydroperoxide glutathione peroxidase GPX4 (Homo sapiens) (UniProt P36969) (assay: Primary qHTS Assay for Inhibitors of Recombinant Selenoprotein Glutathione Peroxidase 4 (GPX4) (AID 1845192; also: nearly all actives have a fitted effect of over 65% in size)). Conditions: recombinant GPX4, GR-coupled NADPH fluorescence, 15 min; series mostly up to 50 µM; activity change, negative = inhibition: at the top concentration.
How it was run: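 NADPH consumption, followed by fluorescence at 340/450 nm between 0 and 15 min, reports GPX4 activity via coupled glutathione reductase (100 nM). Enzyme 200 nM was pre-exposed to compound 30 min; 0.5 mM cumene hydroperoxide and 1 mM GSH served as substrates.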
% is scaled to controls: 0 for no effect and ±100 for the full control effect; potency is read from the fitted curve at half-maximal effect; tags tell the direction and shape of the fitted curve.

Sequence of UniProt P36969 (P36969 whole entry, looked up): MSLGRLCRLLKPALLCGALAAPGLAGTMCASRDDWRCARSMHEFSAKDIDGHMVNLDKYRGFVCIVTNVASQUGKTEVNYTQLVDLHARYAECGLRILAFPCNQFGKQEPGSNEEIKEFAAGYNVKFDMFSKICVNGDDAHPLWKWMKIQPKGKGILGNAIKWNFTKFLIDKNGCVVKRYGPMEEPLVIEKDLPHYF

SMILES | Potency | activity change, negative = inhibition
CC[C@@]1(O)C(=O)OCc2c1cc1n(c2=O)Cc2c-1nc1ccccc1c2CCNC(C)C | inconclusive [inhibitor, partial curve] | 
NC[C@@H]1O[C@H](O[C@H]2[C@H](O)[C@H](O[C@H]3[C@@H](O)[C@H](N)C[C@H](N)[C@H]3O[C@H]3O[C@H](CN)[C@H](O)[C@H](O)[C@H]3N)O[C@@H]2CO)[C@@H](N)[C@@H](O)[C@@H]1O | inconclusive [inhibitor, partial curve] | 
O=C(O)CCCCN(CCc1ccccc1OCc1ccc(CCc2ccccc2)cc1)Cc1ccc(C(=O)O)cc1 | inconclusive [inhibitor, single point] | 
NC(N)=NCC1COC2(CCCCC2)O1 (centres undefined) |  | inactive: -17.6%
COc1ccc2c(O[C@H]3CC4C(=O)N(C)CCCC/C=C\[C@@H]5C[C@@]5(C(=O)NS(=O)(=O)C5CC5)NC(=O)[C@@H]4C3)cc(-c3nc(C(C)C)cs3)nc2c1C (some centres undefined) | active: 2 µM | 
CCCCCCCCCCCCCCCC(=O)OC1CCCn2c1nc(C)c(CCN1CCC(c3noc4cc(F)ccc34)CC1)c2=O (centres undefined) |  | inactive: -10.1%
Oc1c(Br)cc(Br)cc1CNC1CCC(O)CC1 (centres undefined) | inconclusive [inhibitor, single point] | 
C=C(C)CNc1ccc(C(C)C(=O)O)cc1 (centres undefined) | inconclusive [inhibitor, partial curve] | 
C=C1/C(=C/C=C2\CCC[C@]3(C)[C@@H]([C@H](C)CCCC(C)(C)O)CC[C@@H]23)C[C@@H](O)[C@@H](OCCCO)[C@@H]1O | inconclusive [inhibitor, single point] | 

Reference: PubChem BioAssay (NCATS)
